The record followed here is US20250304706A1 (Astellas, published 2025).

In the experiment the target is T1, CD3εδ complex protein (human; alpaca, UniProt P07766 23-126; P04234 22-105).
T1 construct: they are not part of the secreted protein; also called human CD3; CD386 complex protein
In words: ELISA, CD3 complex immobilized. The method, boiled down: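 Bispecific anti-TSPAN8/anti-CD3 antibodies bound to immobilized CD3εδ complex protein in ELISA, detected with HRP anti-human IgG Fc and TMB absorbance. EC50 from a four-parameter variable-slope fit, top fixed at plate maximum and bottom at blank; reference antibody averaged across plates.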
(In general: In an ELISA, binding on a coated surface is turned into a signal by an enzyme label.)

For orientation: EC50 means the midpoint of the concentration-response curve. Higher therefore signals weaker potency.

UniProt P07766, sequence (P07766 23-126 limits assumed, stated change not applied, form in doubt, chain 1 of 2): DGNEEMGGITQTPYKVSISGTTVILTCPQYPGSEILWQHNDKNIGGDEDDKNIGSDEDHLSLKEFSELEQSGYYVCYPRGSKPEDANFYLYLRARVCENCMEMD
UniProt P07766, sequence (P04234 22-105 limits assumed, stated change not applied, form in doubt, chain 2 of 2, further chain): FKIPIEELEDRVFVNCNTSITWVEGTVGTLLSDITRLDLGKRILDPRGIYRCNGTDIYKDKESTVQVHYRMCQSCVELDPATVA

B1: BTE-0115 (bispecific antibody)
chain 1: QVQLVESGGGVVQPGGSLRLSCAASGFTFSSYGMHWVRQAPGKGLEWVAVIWYDGRNKYYADSVKGRFTISRDNSKNTLYLQMNSLRAEDTAVYYCTRDHSGSGSYYIDYWGQGTLVTVSSASTKGPSVFPLAPSSKSTSGGTAALGCLVKDYFPEPVTVSWNSGALTSGVHTFPAVLQSSGLYSLSSVVTVPSSSLGTQTYICNVNHKPSNTKVDKKVEPKSCDKTHTCPPCPAPEAAGGPSVFLFPPKPKDTLMISRTPEVTCVVVDVSHEDPEVKFNWYVDGVEVHNAKTKPREEQYNSTYRVVSVLTVLHQDWLNGKEYKCKVSNKALAAPIEKTISKAKGQPREPQVYTLPPSRDELTKNQVSLSCAVKGFYPSDIAVEWESNGQPENNYKTTPPVLDSDGSFFLVSKLTVDKSRWQQGNVFSCSVMHEALHNHYTQKSLSLSPGK
chain 2: EIAMTQSPATLSVSPGERATLSCRASQSVSSNLAWYQQKPGQAPRLLIYGASTRATGLPARFSGSGSGTEFTLTISSLQSEDFAVYYCQQYNNFWTFGQGTKVEIKRTVAAPSVFIFPPSDEQLKSGTASVVCLLNNFYPREAKVQWKVDNALQSGNSQESVTEQDSKDSTYSLSSTLTLSKADYEKHKVYACEVTHQGLSSPVTKSFNRGEC
chain 3: EVQLVESGGGLIQPGGSLRLSCAASGFTFNTYAMSWVRQAPGKGLEWVARIRSKYNNYATYYADSVKDRFTISRDDSKSTLYLQMNNLRAEDTAVYYCVRHGNFGNSYVSWFAYWGQGTLVTVSSGKPGSGKPGSGKPGSGKPGSQAVVTQEPSLTVSPGGTVTLTCRSSTGAVTTSNYANWVQQKPGQAPRGLIGGTNKRAPGTPARFSGSLLGDKAALTLSGAQPEDEAEYYCALWYSNHWVFGGGTKVTVL[human IgG1 Fc with C220S L234A L235A P329A T366W (EU numbers) cut from this listing]
Molecule B1 came in with a 50% effective concentration (EC50) of 0.358 µg/mL.

B2: BTE-0120 (bispecific antibody)
chain 1: QVQLVESGGGVVQPGGSLRLSCAASGFTFSSYGMHWVRQAPGKGLEWVAVIWYDGRNKYYADSVKGRFTISRDNSKNTLYLQMNSLRAEDTAVYYCTRDHSGSGSYYIDYWGQGTLVTVSSASTKGPSVFPLAPSSKSTSGGTAALGCLVKDYFPEPVTVSWNSGALTSGVHTFPAVLQSSGLYSLSSVVTVPSSSLGTQTYICNVNHKPSNTKVDKKVEPKSCDKTHTCPPCPAPEAAGGPSVFLFPPKPKDTLMISRTPEVTCVVVDVSHEDPEVKFNWYVDGVEVHNAKTKPREEQYNSTYRVVSVLTVLHQDWLNGKEYKCKVSNKALAAPIEKTISKAKGQPREPQVYTLPPSRDELTKNQVSLSCAVKGFYPSDIAVEWESNGQPENNYKTTPPVLDSDGSFFLVSKLTVDKSRWQQGNVFSCSVMHEALHNHYTQKSLSLSPGK
chain 2: EIAMTQSPATLSVSPGERATLSCRASQSVSSNLAWYQQKPGQAPRLLIYGASTRATGLPARFSGSGSGTEFTLTISSLQSEDFAVYYCQQYNNFWTFGQGTKVEIKRTVAAPSVFIFPPSDEQLKSGTASVVCLLNNFYPREAKVQWKVDNALQSGNSQESVTEQDSKDSTYSLSSTLTLSKADYEKHKVYACEVTHQGLSSPVTKSFNRGEC
chain 3: EVQLVESGGGLIQPGGSLRLSCAASGFTFNTYAMNWVRQAPGKGLEWVARIRSKYNNYATEYADSVKDRFTISRDDSKSTLYLQMNNLRAEDTAVYYCVRHGNFGNSYVSWFAYWGQGTLVTVSSGKPGSGKPGSGKPGSGKPGSQAVVTQEPSLTVSPGGTVTLTCRSSTGAVTTSNYANWVQQKPGQAPRGLIGGTNKRAPGTPARFSGSLLGDKAALTLSGAQPEDEAEYYCALWYSNHWVFGGGTKVTVL[human IgG1 Fc with C220S L234A L235A P329A T366W (EU numbers) cut from this listing]
In turn, B2 displayed a half-maximal effective concentration (EC50) of 0.24 µg/mL.

B3: BTE-0117 (bispecific antibody)
chain 1: QVQLVESGGGVVQPGGSLRLSCAASGFTFSSYGMHWVRQAPGKGLEWVAVIWYDGRNKYYADSVKGRFTISRDNSKNTLYLQMNSLRAEDTAVYYCTRDHSGSGSYYIDYWGQGTLVTVSSASTKGPSVFPLAPSSKSTSGGTAALGCLVKDYFPEPVTVSWNSGALTSGVHTFPAVLQSSGLYSLSSVVTVPSSSLGTQTYICNVNHKPSNTKVDKKVEPKSCDKTHTCPPCPAPEAAGGPSVFLFPPKPKDTLMISRTPEVTCVVVDVSHEDPEVKFNWYVDGVEVHNAKTKPREEQYNSTYRVVSVLTVLHQDWLNGKEYKCKVSNKALAAPIEKTISKAKGQPREPQVYTLPPSRDELTKNQVSLSCAVKGFYPSDIAVEWESNGQPENNYKTTPPVLDSDGSFFLVSKLTVDKSRWQQGNVFSCSVMHEALHNHYTQKSLSLSPGK
chain 2: EIAMTQSPATLSVSPGERATLSCRASQSVSSNLAWYQQKPGQAPRLLIYGASTRATGLPARFSGSGSGTEFTLTISSLQSEDFAVYYCQQYNNFWTFGQGTKVEIKRTVAAPSVFIFPPSDEQLKSGTASVVCLLNNFYPREAKVQWKVDNALQSGNSQESVTEQDSKDSTYSLSSTLTLSKADYEKHKVYACEVTHQGLSSPVTKSFNRGEC
chain 3: EVQLVESGGGLIQPGGSLRLSCAASGFTFNTYAMAWVRQAPGKGLEWVARIRSKYNNYATYYADSVKDRFTISRDDSKSTLYLQMNNLRAEDTAVYYCVRHGNFGNSYVSWFAYWGQGTLVTVSSGKPGSGKPGSGKPGSGKPGSQAVVTQEPSLTVSPGGTVTLTCRSSTGAVTTSNYANWVQQKPGQAPRGLIGGTNKRAPGTPARFSGSLLGDKAALTLSGAQPEDEAEYYCALWYSNHWVFGGGTKVTVL[human IgG1 Fc with C220S L234A L235A P329A T366W (EU numbers) cut from this listing]
For the molecule B3, the midpoint of the response, the EC50, lay at 0.09 µg/mL.

B4: BTE-0122 (bispecific antibody)
chain 1: QVQLVESGGGVVQPGGSLRLSCAASGFTFSSYGMHWVRQAPGKGLEWVAVIWYDGRNKYYADSVKGRFTISRDNSKNTLYLQMNSLRAEDTAVYYCTRDHSGSGSYYIDYWGQGTLVTVSSASTKGPSVFPLAPSSKSTSGGTAALGCLVKDYFPEPVTVSWNSGALTSGVHTFPAVLQSSGLYSLSSVVTVPSSSLGTQTYICNVNHKPSNTKVDKKVEPKSCDKTHTCPPCPAPEAAGGPSVFLFPPKPKDTLMISRTPEVTCVVVDVSHEDPEVKFNWYVDGVEVHNAKTKPREEQYNSTYRVVSVLTVLHQDWLNGKEYKCKVSNKALAAPIEKTISKAKGQPREPQVYTLPPSRDELTKNQVSLSCAVKGFYPSDIAVEWESNGQPENNYKTTPPVLDSDGSFFLVSKLTVDKSRWQQGNVFSCSVMHEALHNHYTQKSLSLSPGK
chain 2: EIAMTQSPATLSVSPGERATLSCRASQSVSSNLAWYQQKPGQAPRLLIYGASTRATGLPARFSGSGSGTEFTLTISSLQSEDFAVYYCQQYNNFWTFGQGTKVEIKRTVAAPSVFIFPPSDEQLKSGTASVVCLLNNFYPREAKVQWKVDNALQSGNSQESVTEQDSKDSTYSLSSTLTLSKADYEKHKVYACEVTHQGLSSPVTKSFNRGEC
chain 3: EVQLVESGGGLIQPGGSLRLSCAASGFTFNTYAMNWVRQAPGKGLEWVARIRSKYNNYATYYADSVKDRFTISRDDSKSTLYLQMNNLRAEDTAVYYCVRHGNFGNEYVSWFAYWGQGTLVTVSSGKPGSGKPGSGKPGSGKPGSQAVVTQEPSLTVSPGGTVTLTCRSSTGAVTTSNYANWVQQKPGQAPRGLIGGTNKRAPGTPARFSGSLLGDKAALTLSGAQPEDEAEYYCALWYSNHWVFGGGTKVTVL[human IgG1 Fc with C220S L234A L235A P329A T366W (EU numbers) cut from this listing]
B4 yielded an EC50 of 0.242 µg/mL.

B5: BTE-0119 (bispecific antibody)
chain 1: QVQLVESGGGVVQPGGSLRLSCAASGFTFSSYGMHWVRQAPGKGLEWVAVIWYDGRNKYYADSVKGRFTISRDNSKNTLYLQMNSLRAEDTAVYYCTRDHSGSGSYYIDYWGQGTLVTVSSASTKGPSVFPLAPSSKSTSGGTAALGCLVKDYFPEPVTVSWNSGALTSGVHTFPAVLQSSGLYSLSSVVTVPSSSLGTQTYICNVNHKPSNTKVDKKVEPKSCDKTHTCPPCPAPEAAGGPSVFLFPPKPKDTLMISRTPEVTCVVVDVSHEDPEVKFNWYVDGVEVHNAKTKPREEQYNSTYRVVSVLTVLHQDWLNGKEYKCKVSNKALAAPIEKTISKAKGQPREPQVYTLPPSRDELTKNQVSLSCAVKGFYPSDIAVEWESNGQPENNYKTTPPVLDSDGSFFLVSKLTVDKSRWQQGNVFSCSVMHEALHNHYTQKSLSLSPGK
chain 2: EIAMTQSPATLSVSPGERATLSCRASQSVSSNLAWYQQKPGQAPRLLIYGASTRATGLPARFSGSGSGTEFTLTISSLQSEDFAVYYCQQYNNFWTFGQGTKVEIKRTVAAPSVFIFPPSDEQLKSGTASVVCLLNNFYPREAKVQWKVDNALQSGNSQESVTEQDSKDSTYSLSSTLTLSKADYEKHKVYACEVTHQGLSSPVTKSFNRGEC
chain 3: EVQLVESGGGLIQPGGSLRLSCAASGFTFNTYAMNWVRQAPGKGLEWVARIRSKANNYATYYADSVKDRFTISRDDSKSTLYLQMNNLRAEDTAVYYCVRHGNFGNSYVSWFAYWGQGTLVTVSSGKPGSGKPGSGKPGSGKPGSQAVVTQEPSLTVSPGGTVTLTCRSSTGAVTTSNYANWVQQKPGQAPRGLIGGTNKRAPGTPARFSGSLLGDKAALTLSGAQPEDEAEYYCALWYSNHWVFGGGTKVTVL[human IgG1 Fc with C220S L234A L235A P329A T366W (EU numbers) cut from this listing]
For the molecule B5, the half-maximal effective concentration (EC50) was 0.0232 µg/mL. Against the preceding molecule, the EC50 is about 10-fold lower.

B6: BTE-0121 (bispecific antibody)
chain 1: QVQLVESGGGVVQPGGSLRLSCAASGFTFSSYGMHWVRQAPGKGLEWVAVIWYDGRNKYYADSVKGRFTISRDNSKNTLYLQMNSLRAEDTAVYYCTRDHSGSGSYYIDYWGQGTLVTVSSASTKGPSVFPLAPSSKSTSGGTAALGCLVKDYFPEPVTVSWNSGALTSGVHTFPAVLQSSGLYSLSSVVTVPSSSLGTQTYICNVNHKPSNTKVDKKVEPKSCDKTHTCPPCPAPEAAGGPSVFLFPPKPKDTLMISRTPEVTCVVVDVSHEDPEVKFNWYVDGVEVHNAKTKPREEQYNSTYRVVSVLTVLHQDWLNGKEYKCKVSNKALAAPIEKTISKAKGQPREPQVYTLPPSRDELTKNQVSLSCAVKGFYPSDIAVEWESNGQPENNYKTTPPVLDSDGSFFLVSKLTVDKSRWQQGNVFSCSVMHEALHNHYTQKSLSLSPGK
chain 2: EIAMTQSPATLSVSPGERATLSCRASQSVSSNLAWYQQKPGQAPRLLIYGASTRATGLPARFSGSGSGTEFTLTISSLQSEDFAVYYCQQYNNFWTFGQGTKVEIKRTVAAPSVFIFPPSDEQLKSGTASVVCLLNNFYPREAKVQWKVDNALQSGNSQESVTEQDSKDSTYSLSSTLTLSKADYEKHKVYACEVTHQGLSSPVTKSFNRGEC
chain 3: EVQLVESGGGLIQPGGSLRLSCAASGFTFNTYAMNWVRQAPGKGLEWVARIRSKYNNYATSYADSVKDRFTISRDDSKSTLYLQMNNLRAEDTAVYYCVRHGNFGNSYVSWFAYWGQGTLVTVSSGKPGSGKPGSGKPGSGKPGSQAVVTQEPSLTVSPGGTVTLTCRSSTGAVTTSNYANWVQQKPGQAPRGLIGGTNKRAPGTPARFSGSLLGDKAALTLSGAQPEDEAEYYCALWYSNHWVFGGGTKVTVL[human IgG1 Fc with C220S L234A L235A P329A T366W (EU numbers) cut from this listing]
Regarding B6, the concentration giving a half-maximal response (EC50) turned out to be 0.0458 µg/mL.
